From PubChem BioAssay AID1461 (National Center for Advancing Translational Sciences (NCATS), 2008)
Hit rate of the full screen: of about 220,000 compounds, about 2,300 (1%) were called active. Inconclusive results, whose numbers are uncertain, are shown with a selection of clear calls. Calls come from the whole dose curve; as a rule, active = well fitted inhibition curve with a large enough effect; inconclusive = small, poorly fitted or top-dose-only effect, or effect the other way; inactive = no such curve, though single readings can be large or run the other way. Potencies of inconclusive entries are left out as doubtful fits.
Note: nearly all actives have a fitted effect of over 50% in size.
Potency is the fitted concentration of half-maximal effect; tags give direction and shape of the fitted curve.

What follows are compounds tested against Neuropeptide S receptor (Homo sapiens) (UniProt Q6W5P4) (assay: qHTS Assay for Antagonists of the Neuropeptide S Receptor: cAMP Signal Transduction). Details: CHO-NPSR cells, cAMP TR-FRET, antagonist mode; series mostly up to 38.3 µM.
Sequence of UniProt Q6W5P4 (Q6W5P4 whole entry, looked up): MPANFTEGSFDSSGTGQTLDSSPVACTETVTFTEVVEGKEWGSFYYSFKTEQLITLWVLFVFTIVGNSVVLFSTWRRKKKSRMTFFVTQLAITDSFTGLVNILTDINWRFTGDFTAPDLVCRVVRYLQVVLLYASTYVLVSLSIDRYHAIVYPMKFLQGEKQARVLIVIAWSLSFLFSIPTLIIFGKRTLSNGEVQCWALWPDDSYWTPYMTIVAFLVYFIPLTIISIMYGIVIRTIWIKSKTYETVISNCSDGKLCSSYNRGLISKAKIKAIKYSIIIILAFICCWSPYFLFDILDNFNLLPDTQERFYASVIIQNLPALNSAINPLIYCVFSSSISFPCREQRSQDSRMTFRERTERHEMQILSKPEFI
For `O=[N+]([O-])c1ccc(-c2ccc(C=Nc3cccc4ccccc34)o2)cc1`, the Potency was “inactive”. In the case of `Cc1ccccc1Nc1nc(Nc2ccccc2C)nc(SC2=NCCS2)n1`, the Potency is reported as inconclusive [inhibitor, single point]. `COC(=O)c1cccc(NC(=O)CCc2ccccc2)c1` was tested, and the Potency was “inactive”. With `O=C(NCc1nnc(SCc2ccc(C(F)(F)F)cc2)n1-c1ccccc1)C12CC3CC(CC(C3)C1)C2` the Potency was inconclusive [inhibitor, single point]. For `COc1ccc(N2C(=O)/C(=C\c3ccco3)N=C2SCC(=O)N(C(C)C)C(C)C)cc1Cl`, the Potency was inconclusive [inhibitor, single point]. With `O=C(N/N=C1\CCc2ccccc21)c1ccccc1Cl` the Potency was “inactive”. For `Cc1ccccc1OCCN1CCC(Cc2ccccc2)CC1`, the Potency was inconclusive [inhibitor, single point]. In the case of `COc1cc(OC)c(OC)cc1NC(=O)CC1COc2ccccc2O1` (stereo unspecified), the Potency is reported as “inactive”. With `Nc1nonc1-c1nc2ccccc2n1Cc1ccc(F)cc1` the Potency was inconclusive [inhibitor, partial curve, poor fit]. For `O=c1[nH]cnc2c1sc1nc3c(c(-c4ccc(Cl)cc4)c12)CCC3`, the Potency was inconclusive [inhibitor, single point]. In the case of `CC(C)CNC(=O)NC(=O)COC(=O)c1cccc(NS(=O)(=O)c2ccc(F)c(F)c2)c1`, the Potency is reported as inconclusive [inhibitor, single point]. With `Cn1c(C(=O)NC2CCCCC2)cc2sccc21` the Potency was inconclusive [activator, partial curve]. For `Cc1ccc(S(=O)(=O)N2CCOC2CNC(=O)C(=O)NCCc2ccccc2)cc1` (stereo unspecified), the Potency was “inactive”. With `N#CC1=C(N)Oc2cc3c(cc2C1c1ccc(Cl)cc1)OCO3` (stereo unspecified) the Potency was inconclusive [inhibitor, single point]. In the case of `O=C(Nc1ccccc1)c1sc2cc(C(F)(F)F)cnc2c1-c1cccs1`, the Potency is reported as active: 10 µM. With `COc1ccc(NC(=O)CSc2ccccc2)c(OC)c1` the Potency was “inactive”. In the case of `CCc1ccc(-c2nn(-c3cc(Cl)ccc3[N+](=O)[O-])c(=O)c3ccccc23)cc1`, the Potency is reported as inconclusive [inhibitor, partial curve]. For `CC(/C=N/n1c(-c2cc(C)[nH]n2)n[nH]c1=S)=C\c1ccco1`, the Potency was inconclusive [inhibitor, single point]. In the case of `Cc1ccccc1C1NC(c2ccccc2C)C([N+](=O)[O-])C(C)(C)C1[N+](=O)[O-]` (stereo unspecified), the Potency is reported as inconclusive [activator, single point]. `COc1ccc(NC(=O)N/C=C/c2ccccc2)cc1` was tested, and the Potency was “inactive”. For `COC(=O)c1sccc1NC(=S)Nc1ccc(C)cc1`, the Potency was inconclusive [activator, single point]. In the case of `C=C(C)C1CCC2(C(=O)O)CCC3(C)C(CCC4C5(C)C(C=O)C(O)C(C)(C)C5CCC43C)C12` (stereo unspecified), the Potency is reported as inconclusive [inhibitor, single point]. In the case of `CCCOc1ccc(C(=O)Nc2ccc(Cl)cn2)cc1`, the Potency is reported as inconclusive [inhibitor, single point]. `CNc1ccc(Br)cc(C(=O)/C=C/c2cc(OC)ccc2OC)c1=O` was tested, and the Potency was “inactive”. For `O=C(NCCc1ccccn1)c1cc(-c2ccc(Cl)c(Cl)c2Cl)nc2ccccc12`, the Potency was inconclusive [inhibitor, single point]. For `NCCOc1ccccc1Cc1ccccc1`, the Potency was “inactive”. With `Clc1ccc2c(N/N=C/c3ccc(Br)cc3)ccnc2c1` the Potency was inconclusive [inhibitor, single point]. In the case of `Cc1[nH]c2ccccc2c1/C=N/Nc1nc(N2CCCCC2)nc(N2CCCCC2)n1`, the Potency is reported as “inactive”. For `Cc1nnc2n(-c3ccccc3)c(=O)c3c4c(sc3n12)COC(C(C)C)C4` (stereo unspecified), the Potency was “inactive”. In the case of `CCn1ncc(C2=NOC(C(=O)NCc3ccccc3)C2)c1C` (stereo unspecified), the Potency is reported as inconclusive [activator, partial curve]. For `Cc1nc(NCCO)c2nnn(Cc3ccccc3F)c2n1`, the Potency was “inactive”. For `CC(C)(C)OC(=O)[C@H](Cc1ccccc1)NC(=O)c1nc[nH]c1C(=O)NC1CCN(C(=O)OC(C)(C)C)CC1`, the Potency was inconclusive [activator, partial curve]. `CCN(N=Nc1cccc([N+](=O)[O-])c1)c1cccc([N+](=O)[O-])c1` was tested, and the Potency was inconclusive [inhibitor, partial curve, poor fit]. For `CCC1CCCCN1C(=O)COC(=O)c1n[nH]c2ccccc12` (stereo unspecified), the Potency was inconclusive [inhibitor, single point]. `CCOC(=O)C1CCCN(S(=O)(=O)c2c(C)c(C)cc(C)c2C)C1` (stereo unspecified) was tested, and the Potency was inconclusive [inhibitor, partial curve]. With `COc1cc(-c2cc(C(=O)N3CCN(c4ccccn4)CC3)c3ccccc3n2)cc(OC)c1OC` the Potency was inconclusive [inhibitor, single point]. `NC1=Nc2cccc3cccc1c23` was tested, and the Potency was “inactive”. `O=C(Nc1cccc(Cl)c1)c1cc(S(=O)(=O)NCCc2ccc(Cl)cc2)ccc1F` was tested, and the Potency was inconclusive [inhibitor, single point]. With `O=C(Nc1ccccc1)c1ccc(NC2CCCCC2)c(S(=O)(=O)N2CCOCC2)c1` the Potency was inconclusive [inhibitor, single point]. For `COc1ccccc1-c1cc(C(=O)NCc2ccc(F)cc2)no1`, the Potency was inconclusive [inhibitor, partial curve]. `COc1ccc(N=Cc2c(O)n(-c3cccc(C)n3)c(=O)c3ccccc23)c(OC)c1` was tested, and the Potency was “inactive”. For `CCOC(=O)c1cc(-c2ccccc2)sc1NC(=O)CSc1nnnn1C`, the Potency was inconclusive [inhibitor, single point]. For `CCCCN1C(=O)c2ccc(C(=O)Nc3cccc(C)c3C)cc2C1=O`, the Potency was “inactive”. With `CCc1cccc(C)c1NC(=O)CSc1nc(-c2ccccc2F)nc2nc[nH]c12` the Potency was “inactive”. For `Cc1cccc(OCC(=O)Nc2ccccc2N2CCCCC2)c1`, the Potency was inconclusive [inhibitor, single point]. For `COc1ccccc1Nc1nc(Cl)nc(NC(C)(C)C)n1`, the Potency was inconclusive [inhibitor, single point]. For `NC(=O)C(c1ccc(Cl)cc1)c1ccc(Sc2ccc(Cl)cc2)nn1` (stereo unspecified), the Potency was inconclusive [inhibitor, single point]. In the case of `COC(=O)CCC(=O)OC1(C)C(=O)C=C2C=C(C3CC3)N(Cc3ccc4c(c3)OCO4)C=C2C1=O` (stereo unspecified), the Potency is reported as inconclusive [inhibitor, single point]. For `Cc1onc(-c2ccccc2Cl)c1C(=O)Nc1nnc(-c2ccc(Br)cc2)s1`, the Potency was “inactive”. In the case of `COc1ccc(OC)c2sc(NC(=O)CCSc3ccccc3)nc12`, the Potency is reported as inconclusive [inhibitor, single point]. With `CN1CCN(c2nc(-c3cccnc3)nc3scc(-c4ccccc4)c23)CC1` the Potency was inconclusive [inhibitor, single point]. `c1ccc(N2CCN(c3ncnc4sc5c(c34)CCC5)CC2)cc1` was tested, and the Potency was inconclusive [inhibitor, partial curve]. `Cc1cc(Nc2ccccc2)n(-c2cccc(Cl)c2)n1` was tested, and the Potency was “inactive”. In the case of `COc1ccccc1-c1nnc(SC2CCc3ccccc3NC2=O)s1` (stereo unspecified), the Potency is reported as inconclusive [inhibitor, partial curve]. `CNC(=S)N1N=C(c2ccc(Br)cc2)CC1c1ccc(Br)cc1` (stereo unspecified) was tested, and the Potency was inconclusive [inhibitor, single point]. With `CCOC(=O)C1=C(c2ccccc2)N=c2s/c(=C\c3ccc(O)cc3)c(=O)n2C1c1cccs1` (stereo unspecified) the Potency was active: 10 µM. For `CC(C)(C)c1nnc(NC(=O)C2c3ccccc3Oc3ccccc32)s1`, the Potency was inconclusive [inhibitor, single point]. For `CN(C(=O)/C=C/c1ccc2c(c1)OCO2)c1ccccc1`, the Potency was “inactive”. For `COc1ccc(C2C(=O)N(C3CCCCC3)CC(=O)N2CCc2ccccc2)cc1OC` (stereo unspecified), the Potency was inconclusive [inhibitor, single point]. In the case of `CCOC(=O)C1=C(c2ccccc2)N(C)C(=O)NC1c1ccc(OC(F)F)c(OC)c1` (stereo unspecified), the Potency is reported as inconclusive [inhibitor, single point]. `Cc1ccn2c(c1)nc(=S)n2C(=O)c1ccco1` was tested, and the Potency was “inactive”. For `CCOC(=O)c1c(N)n(CCOC(=O)c2cccs2)c2nc3ccccc3nc12`, the Potency was inconclusive [inhibitor, full curve, poor fit]. In the case of `Cc1onc(-c2ccccc2)c1C(=O)Nc1nc(-c2cc(F)ccc2F)cs1`, the Potency is reported as inconclusive [activator, single point]. In the case of `Cc1ccc(S(=O)(=O)NCCC(c2ccccc2)c2ccco2)cc1` (stereo unspecified), the Potency is reported as inconclusive [inhibitor, single point]. `COC(=O)Cn1c(CN2CCOCC2)nc2c1c(=O)[nH]c(=O)n2C` was tested, and the Potency was “inactive”. In the case of `O=C(Nc1ccc(Cl)cc1)c1csc(-c2ccccc2)n1`, the Potency is reported as inconclusive [inhibitor, single point]. `Cc1ccc(S(=O)(=O)N/N=C/c2ccc(OCC(=O)Nc3ccccc3Cl)cc2)cc1` was tested, and the Potency was “inactive”. With `CC1(C)CC(=O)C=C(Nc2cc(-c3ccccc3)[nH]n2)C1` the Potency was “inactive”. In the case of `CCOc1cc(/C=C2\SC(=S)N(Nc3ccccc3)C2=O)ccc1O`, the Potency is reported as inconclusive [inhibitor, single point]. For `COc1cc(/C=N/O)cc(Br)c1OCc1cccc(Cl)c1`, the Potency was inconclusive [inhibitor, single point]. For `Cc1ccc(OCC(=O)NCc2ccco2)cc1C`, the Potency was inconclusive [inhibitor, single point].
